{
  "source": "the BET-seq Pho4 binding data (Le et al. 2018)",
  "note": "The list shows a part of the results. These are noisy estimates, calculated here from bound and input reads.",
  "data": [
    {"target": "T1, Pho4 (S. cerevisiae) (UniProt P07270)", "T1 sequence": "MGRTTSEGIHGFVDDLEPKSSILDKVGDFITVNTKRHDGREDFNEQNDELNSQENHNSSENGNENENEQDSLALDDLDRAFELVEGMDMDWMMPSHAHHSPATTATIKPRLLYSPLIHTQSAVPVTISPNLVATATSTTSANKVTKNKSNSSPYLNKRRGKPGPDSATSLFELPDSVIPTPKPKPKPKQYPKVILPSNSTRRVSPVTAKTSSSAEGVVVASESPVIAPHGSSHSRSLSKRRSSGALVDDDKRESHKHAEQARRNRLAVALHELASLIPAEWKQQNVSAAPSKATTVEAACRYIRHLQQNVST", "experiment": "relative binding free energy (BET-seq); higher = weaker binding", "settings": "reference: library average", "units": {"relative binding free energy": "kcal/mol"}, "values": [
      {"sequence": "AGTTGCACGTGAGTGA", "relative binding free energy": 0.04},
      {"sequence": "TAAGGCACGTGGGTGA", "relative binding free energy": -0.21},
      {"sequence": "TATTTCACGTGGTACG", "relative binding free energy": 0.11},
      {"sequence": "CGATTCACGTGGTGTG", "relative binding free energy": 0.19},
      {"sequence": "TAGATCACGTGGATGT", "relative binding free energy": 0.06},
      {"sequence": "GGGAGCACGTGTAGAA", "relative binding free energy": -0.06},
      {"sequence": "ACATACACGTGGGGTT", "relative binding free energy": -0.27},
      {"sequence": "GGATTCACGTGTTATG", "relative binding free energy": 0.23},
      {"sequence": "AATTGCACGTGGGGAA", "relative binding free energy": -0.01},
      {"sequence": "TTGTGCACGTGCATTG", "relative binding free energy": -0.15},
      {"sequence": "TGGTCCACGTGAAGTG", "relative binding free energy": 0.29},
      {"sequence": "GTTCGCACGTGGGAGA", "relative binding free energy": 0.06},
      {"sequence": "ACAGGCACGTGGAGGT", "relative binding free energy": -0.18},
      {"sequence": "GAGGACACGTGGGAGA", "relative binding free energy": 0.1},
      {"sequence": "GATATCACGTGGCGGG", "relative binding free energy": 0.14},
      {"sequence": "TTGCACACGTGTGAGT", "relative binding free energy": 0.21},
      {"sequence": "TTAGGCACGTGTGCAG", "relative binding free energy": -0.15},
      {"sequence": "AATCTCACGTGAGGTT", "relative binding free energy": 0.47},
      {"sequence": "GTGGTCACGTGAAGTA", "relative binding free energy": 0.31},
      {"sequence": "ATGTGCACGTGTAAAA", "relative binding free energy": 0.14},
      {"sequence": "CAGGTCACGTGGTGCT", "relative binding free energy": 0.12},
      {"sequence": "TAGTGCACGTGTGCTT", "relative binding free energy": -0.03},
      {"sequence": "TGGAGCACGTGATAAA", "relative binding free energy": 0.21},
      {"sequence": "ATACTCACGTGGTTGG", "relative binding free energy": 0.16},
      {"sequence": "GGTGTCACGTGCTTTC", "relative binding free energy": 0.11},
      {"sequence": "TGAAACACGTGGTTCT", "relative binding free energy": 0.2},
      {"sequence": "AGTATCACGTGCGGAT", "relative binding free energy": 0.18},
      {"sequence": "CAGTTCACGTGTAGCG", "relative binding free energy": 0.33},
      {"sequence": "TTTAACACGTGATGGG", "relative binding free energy": 0.06},
      {"sequence": "TCAGTCACGTGTAGCG", "relative binding free energy": 0.24},
      {"sequence": "TGAAGCACGTGGCGTA", "relative binding free energy": -0.1},
      {"sequence": "TGGTTCACGTGGTCTT", "relative binding free energy": 0.25},
      {"sequence": "GTTGTCACGTGATAGA", "relative binding free energy": 0.28},
      {"sequence": "GTAAACACGTGTAGTT", "relative binding free energy": 0.14},
      {"sequence": "TGTGGCACGTGCATGT", "relative binding free energy": -0.1},
      {"sequence": "CATTGCACGTGGTGCG", "relative binding free energy": -0.16},
      {"sequence": "GTGGGCACGTGAAGGA", "relative binding free energy": 0.14},
      {"sequence": "AGGTACACGTGTCGTT", "relative binding free energy": 0.2},
      {"sequence": "GTATCCACGTGCGGTG", "relative binding free energy": 0.07},
      {"sequence": "CGAGTCACGTGGTTGG", "relative binding free energy": 0.03},
      {"sequence": "TATTGCACGTGCTGTA", "relative binding free energy": -0.09},
      {"sequence": "TAGAACACGTGTAATT", "relative binding free energy": 0.17},
      {"sequence": "CTAGGCACGTGTGATT", "relative binding free energy": 0.03},
      {"sequence": "GTGTTCACGTGTTGAA", "relative binding free energy": 0.35},
      {"sequence": "TATTCCACGTGTTAGT", "relative binding free energy": 0.12},
      {"sequence": "ATGATCACGTGGGAGC", "relative binding free energy": 0},
      {"sequence": "GTCATCACGTGGCGGG", "relative binding free energy": 0.04},
      {"sequence": "ATAGGCACGTGAGATG", "relative binding free energy": 0.15},
      {"sequence": "ATCATCACGTGCGGGG", "relative binding free energy": 0.13},
      {"sequence": "CTTAGCACGTGGGGTG", "relative binding free energy": -0.16},
      {"sequence": "ATTGGCACGTGTGCAT", "relative binding free energy": -0.2},
      {"sequence": "AGCAGCACGTGTATGG", "relative binding free energy": -0.03},
      {"sequence": "TGTGCCACGTGGCAGT", "relative binding free energy": -0.27},
      {"sequence": "TGGACCACGTGGTGCG", "relative binding free energy": -0.1},
      {"sequence": "TAAGTCACGTGTTGGC", "relative binding free energy": -0.02},
      {"sequence": "CTTAACACGTGGGTTT", "relative binding free energy": -0.18},
      {"sequence": "TTTAGCACGTGCGTGA", "relative binding free energy": -0.18},
      {"sequence": "TGTCGCACGTGTTCTT", "relative binding free energy": 0.03},
      {"sequence": "TGGGTCACGTGGGCTG", "relative binding free energy": -0.03},
      {"sequence": "ACTAGCACGTGGGGCT", "relative binding free energy": -0.14},
      {"sequence": "GTGTGCACGTGTTTAC", "relative binding free energy": -0.15},
      {"sequence": "GATGGCACGTGGATGT", "relative binding free energy": -0.12},
      {"sequence": "GCGATCACGTGGTGTG", "relative binding free energy": 0.13},
      {"sequence": "GTGAACACGTGGGGTC", "relative binding free energy": -0.05},
      {"sequence": "CTGTTCACGTGCTTTT", "relative binding free energy": 0.24},
      {"sequence": "TTTCGCACGTGGTTAA", "relative binding free energy": -0.16},
      {"sequence": "GCAGTCACGTGGGTGT", "relative binding free energy": -0.05},
      {"sequence": "ATATACACGTGGTTGG", "relative binding free energy": 0.02},
      {"sequence": "AGGGCCACGTGTTGAA", "relative binding free energy": -0.03},
      {"sequence": "AAGGTCACGTGGTCAT", "relative binding free energy": -0.05},
      {"sequence": "GCGTGCACGTGTTGTA", "relative binding free energy": 0.02},
      {"sequence": "GTGGTCACGTGATGTC", "relative binding free energy": 0.23},
      {"sequence": "AGATTCACGTGGCATG", "relative binding free energy": 0.13},
      {"sequence": "TAATACACGTGTGGTG", "relative binding free energy": -0.02},
      {"sequence": "TTAAACACGTGTTGGA", "relative binding free energy": 0.07},
      {"sequence": "GCGGGCACGTGGGGAA", "relative binding free energy": -0.22},
      {"sequence": "TGATACACGTGAGGTG", "relative binding free energy": 0.14},
      {"sequence": "AGTTGCACGTGGAGGC", "relative binding free energy": 0.03},
      {"sequence": "GTTTACACGTGAAGAG", "relative binding free energy": 0.29},
      {"sequence": "CGAGTCACGTGATGTT", "relative binding free energy": 0.23},
      {"sequence": "CTTAGCACGTGATTGT", "relative binding free energy": -0.04},
      {"sequence": "AGATGCACGTGTGAAG", "relative binding free energy": 0.07},
      {"sequence": "TGGTACACGTGTTTCG", "relative binding free energy": 0.13},
      {"sequence": "TGAGCCACGTGAGAGG", "relative binding free energy": 0.17},
      {"sequence": "TGGCGCACGTGATAGG", "relative binding free energy": 0.11},
      {"sequence": "GAAGTCACGTGTGCGT", "relative binding free energy": 0.04},
      {"sequence": "GTTATCACGTGGCGGC", "relative binding free energy": 0.12},
      {"sequence": "TTTTGCACGTGTATTC", "relative binding free energy": 0.15},
      {"sequence": "CGAGTCACGTGGGTGG", "relative binding free energy": -0.01},
      {"sequence": "TAGGGCACGTGCGTTT", "relative binding free energy": -0.22},
      {"sequence": "GGAGTCACGTGGGAGT", "relative binding free energy": 0},
      {"sequence": "GGAATCACGTGGTAGG", "relative binding free energy": 0.19},
      {"sequence": "TCCTGCACGTGAGGTG", "relative binding free energy": 0.29},
      {"sequence": "TGTAACACGTGTGTGA", "relative binding free energy": -0.05},
      {"sequence": "GTGTGCACGTGATTGA", "relative binding free energy": 0.26},
      {"sequence": "TGGATCACGTGTGCGA", "relative binding free energy": 0.02},
      {"sequence": "TTAGGCACGTGTTCTG", "relative binding free energy": -0.24},
      {"sequence": "CGGGCCACGTGTGTGT", "relative binding free energy": -0.23},
      {"sequence": "CATGGCACGTGCGGTG", "relative binding free energy": -0.27},
      {"sequence": "ATTAGCACGTGCAGTA", "relative binding free energy": -0.12},
      {"sequence": "TATTGCACGTGCTTAT", "relative binding free energy": -0.07},
      {"sequence": "TTGTTCACGTGAATGT", "relative binding free energy": 0.37},
      {"sequence": "GGGAGCACGTGGGTAA", "relative binding free energy": -0.21},
      {"sequence": "AGGTACACGTGTGCTA", "relative binding free energy": 0.1},
      {"sequence": "TTGTACACGTGGCAGT", "relative binding free energy": -0.13},
      {"sequence": "CTATACACGTGTTTGG", "relative binding free energy": -0.06},
      {"sequence": "AGGTGCACGTGTAGAA", "relative binding free energy": -0.11},
      {"sequence": "TGTTCCACGTGCGGGT", "relative binding free energy": 0.07},
      {"sequence": "GATGTCACGTGATTAG", "relative binding free energy": 0.4},
      {"sequence": "TATGTCACGTGCGTAG", "relative binding free energy": 0},
      {"sequence": "TTTCACACGTGTTTAG", "relative binding free energy": 0.08},
      {"sequence": "GTGTGCACGTGCGAAG", "relative binding free energy": -0.01},
      {"sequence": "TATATCACGTGTGTAA", "relative binding free energy": 0.21},
      {"sequence": "GGTTACACGTGTATAA", "relative binding free energy": 0.31},
      {"sequence": "GCGGTCACGTGAATGT", "relative binding free energy": 0.35}
    ]}
  ]
}
